{"source": "paper PMC11006913", "origin": "cited, not measured here", "conditions_in_all_cases": "PBM; conditions not shown; double strand, one strand shown; scale: upbm affinity estimate (log intensity, higher = more binding, comparable within an allelic series)", "key": {"[1]": {"molecular_target": "NKX2-5 K183E (Homo sapiens) (UniProt P52952)"}, "[2]": {"molecular_target": "NKX2-5 R161P (Homo sapiens) (UniProt P52952)"}, "[3]": {"molecular_target": "NKX2-5 R190C (Homo sapiens) (UniProt P52952)"}}, "note": "The list shows a part of the results."}
{"sequence": "CCCACTTA [8-mer CCCACTTA]", "values": [{"measurement": "binding signal", "setting": "[1]", "result": 12.1}, {"measurement": "binding signal", "setting": "[2]", "result": 13.1}, {"measurement": "binding signal", "setting": "[3]", "result": 10.8}]}
{"sequence": "CGGAGACC [8-mer CGGAGACC]", "values": [{"measurement": "binding signal", "setting": "[1]", "result": 10.2}, {"measurement": "binding signal", "setting": "[2]", "result": 10.3}, {"measurement": "binding signal", "setting": "[3]", "result": 10.2}]}
{"sequence": "AAGTGGTA [8-mer AAGTGGTA]", "values": [{"measurement": "binding signal", "setting": "[1]", "result": 11.9}, {"measurement": "binding signal", "setting": "[2]", "result": 12.7}, {"measurement": "binding signal", "setting": "[3]", "result": 10.8}]}
{"sequence": "AGTACTTA [8-mer AGTACTTA]", "values": [{"measurement": "binding signal", "setting": "[1]", "result": 11.2}, {"measurement": "binding signal", "setting": "[2]", "result": 12.8}, {"measurement": "binding signal", "setting": "[3]", "result": 10.9}]}
{"sequence": "CTAAGTGC [8-mer CTAAGTGC]", "values": [{"measurement": "binding signal", "setting": "[1]", "result": 11.3}, {"measurement": "binding signal", "setting": "[2]", "result": 12.9}, {"measurement": "binding signal", "setting": "[3]", "result": 10.7}]}
{"sequence": "CCACTTCA [8-mer CCACTTCA]", "values": [{"measurement": "binding signal", "setting": "[1]", "result": 11.9}, {"measurement": "binding signal", "setting": "[2]", "result": 13}, {"measurement": "binding signal", "setting": "[3]", "result": 10.6}]}
{"sequence": "CGTTCCGC [8-mer CGTTCCGC]", "values": [{"measurement": "binding signal", "setting": "[1]", "result": 10.2}, {"measurement": "binding signal", "setting": "[2]", "result": 10.1}, {"measurement": "binding signal", "setting": "[3]", "result": 10.2}]}
{"sequence": "AAGTACTT [8-mer AAGTACTT]", "values": [{"measurement": "binding signal", "setting": "[1]", "result": 11.2}, {"measurement": "binding signal", "setting": "[2]", "result": 12.9}, {"measurement": "binding signal", "setting": "[3]", "result": 10.6}]}
{"sequence": "CACTTCAC [8-mer CACTTCAC]", "values": [{"measurement": "binding signal", "setting": "[1]", "result": 11.4}, {"measurement": "binding signal", "setting": "[2]", "result": 12.5}, {"measurement": "binding signal", "setting": "[3]", "result": 10.8}]}
{"sequence": "CAGCCCTG [8-mer CAGCCCTG]", "values": [{"measurement": "binding signal", "setting": "[1]", "result": 10.2}, {"measurement": "binding signal", "setting": "[2]", "result": 10.2}, {"measurement": "binding signal", "setting": "[3]", "result": 10.2}]}
{"sequence": "CACTTACA [8-mer CACTTACA]", "values": [{"measurement": "binding signal", "setting": "[1]", "result": 11.4}, {"measurement": "binding signal", "setting": "[2]", "result": 12.5}, {"measurement": "binding signal", "setting": "[3]", "result": 10.9}]}
{"sequence": "AAGTGTTC [8-mer AAGTGTTC]", "values": [{"measurement": "binding signal", "setting": "[1]", "result": 10.9}, {"measurement": "binding signal", "setting": "[2]", "result": 12.2}, {"measurement": "binding signal", "setting": "[3]", "result": 10.7}]}
{"sequence": "CGCGGCTA [8-mer CGCGGCTA]", "values": [{"measurement": "binding signal", "setting": "[1]", "result": 10.2}, {"measurement": "binding signal", "setting": "[2]", "result": 10.3}, {"measurement": "binding signal", "setting": "[3]", "result": 10.2}]}
{"sequence": "ATACTTGA [8-mer ATACTTGA]", "values": [{"measurement": "binding signal", "setting": "[1]", "result": 11.2}, {"measurement": "binding signal", "setting": "[2]", "result": 12.4}, {"measurement": "binding signal", "setting": "[3]", "result": 10.9}]}
{"sequence": "GGCGCACA [8-mer GGCGCACA]", "values": [{"measurement": "binding signal", "setting": "[1]", "result": 10.5}, {"measurement": "binding signal", "setting": "[2]", "result": 10.6}, {"measurement": "binding signal", "setting": "[3]", "result": 10.3}]}
{"sequence": "CCGGCCAC [8-mer CCGGCCAC]", "values": [{"measurement": "binding signal", "setting": "[1]", "result": 9.98}, {"measurement": "binding signal", "setting": "[2]", "result": 10.1}, {"measurement": "binding signal", "setting": "[3]", "result": 9.87}]}
{"sequence": "CTGGTCCC [8-mer CTGGTCCC]", "values": [{"measurement": "binding signal", "setting": "[1]", "result": 10.1}, {"measurement": "binding signal", "setting": "[2]", "result": 10.3}, {"measurement": "binding signal", "setting": "[3]", "result": 10.1}]}
{"sequence": "ATTAAGTG [8-mer ATTAAGTG]", "values": [{"measurement": "binding signal", "setting": "[1]", "result": 11.7}, {"measurement": "binding signal", "setting": "[2]", "result": 12.7}, {"measurement": "binding signal", "setting": "[3]", "result": 11}]}
{"sequence": "CACTTTTC [8-mer CACTTTTC]", "values": [{"measurement": "binding signal", "setting": "[1]", "result": 11}, {"measurement": "binding signal", "setting": "[2]", "result": 11.8}, {"measurement": "binding signal", "setting": "[3]", "result": 10.7}]}
